Results published in ChEMBL document CHEMBL4888484, “Replenishing the malaria drug discovery pipeline: Screening and hit evaluation of the MMV Hit Generation Library 1 (HGL1) against asexual blood stage Plasmodium falciparum ,using a nano luciferase reporter read-out” (2022).
The campaign covered roughly 150,000 compounds. About 540 (0.36%) showed an effect of 50% or more. Some of the results follow.

The compounds below were run on Plasmodium falciparum (assay: Primary screen in NF54 nanoGlo assay, in single point, at 2uM, 72h; a lower Z score goes with more inhibition). Conditions: timepoint 72 hour.
Type: functional, Erythrocyte

| Structure (SMILES) | % Inhibition [%] | Z score |
| --- | --- | --- |
| O=c1cc2c(nn1Cc1ccccc1Cl)-c1ccccc1CC2 | 34 | -4.43 |
| O=C(Cc1cccc(F)c1F)N1C[C@@H]2CC[C@@H](C2)C1 | -7 | 0.92 |
| CCc1ccsc1C(=O)Nc1cnccc1O | 8 | -1.51 |
| COCC1(CNc2cncc(C(=O)N(C)C)n2)CCC1 | -10 | 2.14 |
| O=C(CN1CCOC1=O)NCCN1Cc2cc(Cl)ccc2OCC1=O | -13 | 2.14 |
| C=CCN(Cc1ccc(C#N)cc1)[C@H]1CCN(CC(F)(F)F)C1=O | -8 | 1 |
| Cc1nc(-c2ccc(Cl)c(S(=O)(=O)N3CCC(C(=O)Nc4ccccc4F)CC3)c2)no1 | -5 | 0.64 |
| O=C(CCc1cc2n(n1)CCCN(C[C@H]1CCCCO1)C2)NC1CC1 | -5 | 0.47 |
| C=CCn1c(=O)c2sc(N3CCCCC3)nc2n(CC(=O)NCc2ccccc2)c1=O | -28 | 2.43 |
| CCCCc1nnc(NCc2cccn2C)s1 | 13 | -1.26 |
| CC(CO)(NC(=O)CC1CC2CCC1C2)c1ccc(O)cc1 (stereo not given) | -7 | 0.93 |
| CCOC(=O)c1c(C)c(CCC(=O)N2CCN(c3ccccn3)CC2)n(C)c1C | -4 | 0.78 |
| CCCN(C)S(=O)(=O)NCc1cccc(N)c1 | -3 | 0.52 |
| CCNC(=O)c1cccnc1Oc1cccc(NS(=O)(=O)c2ccccc2)c1 | -8 | 1.16 |
| CC(C)[C@H]1CCCN(C(=O)CCn2cccn2)CC1 | -15 | 1.9 |
| C=CC[C@@H]1N(C(=O)CCN2CCN(CC)CC2)CCCC1(C)C | 1 | -0.18 |
| C[C@H](NC(=O)Nc1ccc(C(C)(C)C#N)cc1)C(=O)N(C)C | -5 | 0.73 |
| FC1(F)CCNC[C@@H]1COCc1ccccc1 | 7 | -1.25 |
| COc1ccc(NC(=O)N2CC[S@+]([O-])C(C)(C)C2)c(Cl)c1 | -6 | 0.87 |
| CN(C)S(=O)(=O)N1CCC[C@@]2(CCC(=O)N(Cc3ccccn3)C2)C1 | -11 | 2.16 |
| CS(=O)(=O)c1c(Cl)cccc1NC(=O)c1cnc([C@@H]2CCCO2)s1 | -11 | 1.58 |
| N#Cc1cccc(CN2CC(n3cc(C(=O)NCC4CC4)nn3)C2)c1 | -13 | 2.55 |

| Structure (SMILES) | % Inhibition [%] | Z score |
| --- | --- | --- |
| CCN(Cc1noc(C2CCC2)n1)C(=O)N[C@H](C)c1cccc(OC)c1 | 2 | -0.25 |
| c1ccc(-c2ncn(CCc3ccncc3)c2-c2ccccc2)cc1 | 17 | -2.1 |
| O=C(CCc1c(Cl)cccc1Cl)NCCOCCN1C(=O)CCC1=O | -7 | 1.12 |
| Cc1nnc(CN2CCC3(CC2)CN(C[C@H](C)c2ccccc2)C(=O)O3)o1 | -8 | 1.04 |
| O=C(c1nc(C2CC2)n(-c2ccccc2)n1)N1CCCCCCC1 | -1 | 0.13 |
| O=S(=O)(C[C@H]1CCCC1(F)F)NC12CCC(CC1)C2 | -1 | 0.15 |
| CN(C)c1cncc(-c2cc(O)cc(CC[C@H]3CCCCN3)c2)n1 | -2 | 0.33 |
| CCCn1c(=O)cc(-c2ccccc2)c2ccc(OCC(=O)Nc3ccccc3F)cc21 | 10 | -1.49 |
| [O-][n+]1ccc(OCc2ccccc2)cc1 | -14 | 1.59 |
| CCCNC(=O)CNC(=O)NCCC1CCCC1 | 3 | -0.34 |
| Cc1cc(C(=O)NCc2cc(-c3ccncc3)n(C3CCCC3)n2)no1 | -13 | 1.51 |
| Cc1cccc(S(=O)(=O)CCCN2CCC(c3ncco3)CC2)c1 | -19 | 2.57 |
| Cc1nc2c(c(-c3ccc(C(N)=O)c(Cl)c3)n1)CCC2 | -16 | 2.23 |
| CCc1cnc(NCc2cc3c(nc2OC)CN(C2CCCC2)C3=O)nc1 | 2 | -0.23 |
| COc1ccc(OC)c(CNS(=O)(=O)c2ccccc2-c2nc(-c3ccc(C)cc3)no2)c1 | -8 | 1.01 |
| COC(=O)c1c(NC(=O)[C@@H]2CCCO2)c2cc(NC3CCN(C(C)=O)CC3)cnc2n1CCc1ccccc1 | -2 | 0.3 |
| COCCCCNc1cc(F)c(F)cc1F | -1 | 0.2 |
| CCN(CC(F)(F)F)C(=O)NCCc1cn[nH]c1 | -4 | 0.76 |
| COc1cccc(-c2ccc3nc(N4CCC(C(=O)O)CC4)sc3n2)c1 | 2 | -0.15 |
| CCC1CC(C(=O)Nc2ncc(Cl)s2)CCO1 (stereo not given) | -2 | 0.21 |
| COCCN(Cc1c(-c2ccccc2)nn(C)c1Oc1ccc(Cl)cc1)C(=O)c1ccc(F)cc1 | -17 | 1.52 |
| Cc1cc(C)nc(CCNC(=O)C[C@H]2C(=O)NCCN2C/C=C/c2ccccc2)n1 | -12 | 1.74 |

| Structure (SMILES) | % Inhibition [%] | Z score |
| --- | --- | --- |
| O=C(CCCNS(=O)(=O)c1ccc(Cl)cc1)NCc1ccccc1 | 0 | -0.02 |
| CCC1(CNC(=O)NCCCNC(C)=O)CCCC1 | -9 | 0.74 |
| COc1ccccc1CCC(=O)N1CC[C@@]2(CCCN(CC3CC3)C2=O)C1 | -7 | 1.29 |
| Cc1ccc2c(c1)[C@@H](NCc1ccc(C3OCCO3)cc1)CC2 | -24 | 2.19 |
| Cc1cc(C)nc(-n2[nH]c(C)c(Cc3ccc(C(C)(C)C)cc3)c2=O)n1 | 1 | -0.16 |
| CCOc1ncccc1C(=O)Nc1ccc(S(=O)(=O)N2CCOCC2)cc1 | -13 | 2.04 |
| O=C(N[C@H]1CC[C@@H](C(=O)Nc2cc(F)ccc2F)C1)c1ccco1 | -6 | 1.25 |
| CC(=O)[C@@H]1CCCCN1C(=O)OC(C)(C)C | -19 | 1.73 |
| O=C(Nc1cccc(C(F)(F)F)c1)N1CCC(Oc2cnc3ccccc3n2)CC1 | -19 | 3.54 |
| Cc1ccc(CN2CCC3(CC2)C(=O)NCCN3C)n1-c1cccnc1 | 0 | -0.01 |
| O=S(=O)(Nc1nnc(C2(c3ccccc3)CC2)s1)c1cccs1 | -6 | 0.83 |
| CCN1CCN(C(C)(C)CNC(=O)N[C@@H](C)[C@H](O)c2ccccc2)CC1 | -21 | 2.22 |
| Cc1ccnc(N2CCC[C@H](n3cc(C(=O)NCCO)nn3)C2)n1 | -5 | 0.82 |
| Cc1cc(C)n([C@@H](C)CC(=O)Nc2cc(C)on2)n1 | -16 | 1.59 |
| O=C(COC[C@H]1CCCO1)N1CCCc2cc(F)c(F)c(F)c21 | -5 | 0.85 |
| Cc1ccc(OCCNS(=O)(=O)N2CCC[C@H](C)C2)cc1 | 23 | -2.7 |
| CCOc1ccccc1NC(=O)[C@H]1CCC(=O)NC1 | 3 | -0.37 |
| O=C(NCC1CC1)[C@H](C1CCCC1)N1CCN(C(=O)CCc2ccccc2)CC1 | -3 | 0.36 |
| COc1cccc(C2NC(C)(C(=O)O)C3C(=O)N(Cc4ccccc4)C(=O)C23)c1O (stereo not given) | -15 | 1.98 |
| CCOc1ccc(-n2ccn3c(C[C@@H](C)CC(=O)NCc4ccc(F)cc4)nnc3c2=O)cc1 | -10 | 1.52 |
| Cc1cccc(C(=O)N2CCC[C@H]2c2ccc3c(c2)OCCCO3)n1 | -7 | 1.3 |
| Cc1cc(C)n(CC(=O)Nc2nnc(C3CC3)s2)n1 | -15 | 3.03 |

| Structure (SMILES) | % Inhibition [%] | Z score |
| --- | --- | --- |
| CN(C)c1cc(O[C@H]2CCN(C(=O)c3cnn4cccnc34)C2)ncn1 | -3 | 0.37 |
| Cc1cc(-n2nnc(C(=O)Nc3cc(F)cc(F)c3)c2-c2cccnc2)ccc1F | 3 | -0.23 |
| O=C1NC2(CCN(Cc3ccccn3)CC2)Nc2ncccc21 | -9 | 1.07 |
| O=C(c1ccc[n+]([O-])c1)N1CCOc2ccc(C3=CCCCC3)cc2C1 | -3 | 0.44 |
| COc1ncc([C@@H]2C[C@H](NC(C)=O)C[C@H](CCc3ccccc3)O2)cn1 | 3 | -0.55 |
| COc1ccc(NC(N)=NCc2ccco2)cc1 | -12 | 0.98 |
| Cc1nc(-c2ccccc2)sc1-c1cc(C(=O)O)n[nH]1 | 31 | -3.99 |
| CC(C)[C@H]1CC[C@H](C(=O)NC2(CO)CCOCC2)CC1 | -13 | 1.68 |
| Cc1ccc(CNC(=O)N2CCc3c(c(-c4nc(C5CC5)no4)nn3C)C2)cc1 | -8 | 1.31 |
| Cc1ccsc1[C@@H](O)CNC(=O)c1cccs1 | -12 | 2.04 |
| CCOc1cncc(N2CCOC3CCCCC32)n1 (stereo not given) | 2 | -0.22 |
| O=C(Cc1n[nH]c(-c2cccnc2)n1)NCCc1cccs1 | -4 | 0.52 |
| CCOc1cc(C=C(C)c2cnccn2)ccc1O | -4 | 0.44 |
| O=C(Cc1ccc(O)cc1)N1C[C@H]2CCCC[C@@]2(C(=O)O)C1 | 18 | -2.31 |
| O=S(=O)(Cc1ccc(C(F)F)cc1)N1CCC[C@@H]1c1nc[nH]n1 | -2 | 0.4 |
| CC1(NC(=O)c2cncnc2)CCOC1C1CC1 (stereo not given) | -9 | 1.17 |
| CCn1ncnc1CN1C[C@@H]2NC(=O)c3ccc(Cl)c(c3)OCCCn3cc(nn3)CO[C@H]2C1 | -13 | 2.49 |
| COCCOCC1CCN(C(=O)Nc2ccc3c(c2)OCO3)CC1 | -18 | 2.63 |
| CCO[C@@H](C)c1nccn1Cc1ccnc(N(C)C)c1 | -4 | 0.41 |
